42 sequences from paper PMC7819943, “Rice protein-binding microarrays: a tool to detect cis-acting elements near promoter regions in rice” can be followed below.

The other results are listed elsewhere or left out.

This assay addresses T1, OsWOX13 (Oryza sativa, UniProt Q5QMM3 1-267).
T1 sequence: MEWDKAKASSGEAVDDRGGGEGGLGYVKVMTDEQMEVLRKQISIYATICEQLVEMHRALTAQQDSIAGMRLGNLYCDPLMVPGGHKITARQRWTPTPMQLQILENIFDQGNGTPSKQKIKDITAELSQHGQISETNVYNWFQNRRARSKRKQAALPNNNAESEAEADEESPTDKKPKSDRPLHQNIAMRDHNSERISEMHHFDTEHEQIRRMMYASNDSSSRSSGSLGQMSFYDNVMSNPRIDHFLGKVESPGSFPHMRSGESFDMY
Kind of assay: protein-binding microarray (RPBM); PBS, 2% BSA, 51.3 ng/ul salmon testes DNA, 50 uM zinc acetate, 200 nM TF, 25 C, 1 h; high values mean tight binding. The note with it: protein: recombinant; tags: N-terminal polyhistidine and DsRed monomer fusion (pET32a); label: CyDye5-dUTP incorporated in the synthesized complementary strand; 3' TTTTT single-stranded linker to array surface; dsDNA, one strand shown. In a few lines:
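An Axon 4000B scanner gave the binding signal as per-feature fluorescence intensity in arbitrary units. This followed washing of a custom Agilent array that had been incubated for 1 h at 25 °C with 200 nM protein in PBS, 2% BSA, salmon testes DNA and 50 µM zinc acetate. The proteins were transcription factors fused at the N-terminus to polyhistidine and DsRed, expressed in E. coli BL21-CodonPlus and purified on Ni–NTA.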
With “CTAATTAATTTGTTCCCTTAATTGGCACTTTGAATCTAAGCGGAGTCACCTAGTGCAG”, the binding signal was 58300 fluorescence intensity (a.u.).

Take “GCAGATTTACGTATTCATTGTGATAGATATATATCCCCAACGGAGTCACCTAGTGCAG”: the binding signal was 12600 fluorescence intensity (a.u.).

Regarding “AATAGATGGTGATTTATTCATATTAAAGCGCATAATGGTACGGAGTCACCTAGTGCAG”, the binding signal was 7580 fluorescence intensity (a.u.).

With “GGATATGATTATTTAGTTAAAAGTTGCTAGAATTTCTTAGCGGAGTCACCTAGTGCAG”, the binding signal is 19000 fluorescence intensity (a.u.).

Turning to “AAACGATTGATCACAATCCACGCATCGTGCCTCTCTCGCCCGGAGTCACCTAGTGCAG”, the binding signal was 14300 fluorescence intensity (a.u.).

On to “CAATAATTTTATGTCGACGGCTAGAAAATATTAACCAAAGCGGAGTCACCTAGTGCAG”, for which the binding signal was 6320 fluorescence intensity (a.u.).

“ATTTCAATTTTCAATTTGGACCACTCCATTATATCCATCTCGGAGTCACCTAGTGCAG”: the binding signal was 6820 fluorescence intensity (a.u.).

Consider “ATAAATTTAATGAGTTCATCATGATGATATATAGTACTTTCGGAGTCACCTAGTGCAG”, for which the binding signal was 22400 fluorescence intensity (a.u.).

Regarding “ATATATATATATATATATATATTCATTAACATATATATAACGGAGTCACCTAGTGCAG”, the binding signal was 4810 fluorescence intensity (a.u.).

Consider “GTAAATTAGAGGTAGCAATCACGAGGGAGAGTTGGAGTTTCGGAGTCACCTAGTGCAG”, for which the binding signal is 11700 fluorescence intensity (a.u.).

For the sequence “AAAGATAGATATCCCAAATTTTAAAATTTAGTTGAACCTCCGGAGTCACCTAGTGCAG”, the binding signal is 8380 fluorescence intensity (a.u.).

On to “GTCCAGGCTTAATTCAATCATTATATGTACATATCTTTGTCGGAGTCACCTAGTGCAG”, for which the binding signal was 6860 fluorescence intensity (a.u.).

Take “TAAATAAATGATTGGGCTTGTTAATGGGCTTCCTCTTCCTCGGAGTCACCTAGTGCAG”: the binding signal is 41900 fluorescence intensity (a.u.).

On to “TTAATTAAGCTAATTCTAAGACAATTCTTTGTGAATCCCCCGGAGTCACCTAGTGCAG”, for which the binding signal was 8920 fluorescence intensity (a.u.).

For the sequence “TTAGATAATGTGTAATCAATTTTCTATTTCACAAACATGACGGAGTCACCTAGTGCAG”, the binding signal is 14700 fluorescence intensity (a.u.).

Take “CTCTCCATCTGATTTAGCTAGTCAAATTAGATACTCACTCCGGAGTCACCTAGTGCAG”: the binding signal was 3200 fluorescence intensity (a.u.).

With “TTTTCGTTTACTGATTTGTGTTCAACAAGCGGCAGATTCGCGGAGTCACCTAGTGCAG”, the binding signal was 3980 fluorescence intensity (a.u.).

For “TCCGCCAATCAGCGCCCACCTCTCCCCTCCTTTAATACCACGGAGTCACCTAGTGCAG”, the binding signal is 7870 fluorescence intensity (a.u.).

Take “CAAAATTGTATCAAATTGTTTTAGTTTTGTACATATTATGCGGAGTCACCTAGTGCAG”: the binding signal was 26300 fluorescence intensity (a.u.).

Take “TTAGCTTGATGGATTTGGTAAACCAAGAGGTCCTTCATGTCGGAGTCACCTAGTGCAG”: the binding signal is 6580 fluorescence intensity (a.u.).

For the sequence “AAGCAAGTGATTAATCATTCACGTCTTCTGCATGATCATCCGGAGTCACCTAGTGCAG”, the binding signal is 12900 fluorescence intensity (a.u.).

On to “ATGGATGTTCTAAATTAGACTAATTTAAGTATCTTGACAACGGAGTCACCTAGTGCAG”, for which the binding signal was 12800 fluorescence intensity (a.u.).

On to “CACTAATTAACAATGGAGCTGTACGCACTAGTAGTAATTCCGGAGTCACCTAGTGCAG”, for which the binding signal is 20100 fluorescence intensity (a.u.).

In the case of “TTTAATTTTCTTGTTTGTCATCAACATGACAGCAAACAAACGGAGTCACCTAGTGCAG”, the binding signal is 8500 fluorescence intensity (a.u.).

In the case of “GATAAATGGGTTGATCCAATTGAACACGTACGCAGTGGGGCGGAGTCACCTAGTGCAG”, the binding signal was 6580 fluorescence intensity (a.u.).

For the sequence “GTCCACTCCCCGTTGATTTGATTTGTCTCGTAGCTGCAGCCGGAGTCACCTAGTGCAG”, the binding signal was 12600 fluorescence intensity (a.u.).

Take “TTAATTATATGCTAATGGCTAACCTTATTTTACGTATCTTCGGAGTCACCTAGTGCAG”: the binding signal is 5100 fluorescence intensity (a.u.).

On to “TTAATGAAAACCAATGTGATTGTTCGGCACGGTCACACGACGGAGTCACCTAGTGCAG”, for which the binding signal is 5270 fluorescence intensity (a.u.).

On to “AAATTTATGTAATTATCATTTATTTTATTATGACTTGATTCGGAGTCACCTAGTGCAG”, for which the binding signal is 13300 fluorescence intensity (a.u.).

As to “CATTAACTGGGATACCATCAATTAGCGGTGACCCTACTAACGGAGTCACCTAGTGCAG”, the binding signal is 18300 fluorescence intensity (a.u.).

Take “AGCTTTAATTTAGTGAATGGAAATACTCCATATTTATTTGCGGAGTCACCTAGTGCAG”: the binding signal was 10700 fluorescence intensity (a.u.).

In the case of “CTCCATATCAATCAAACGGGACGATATAAGCGACATATCACGGAGTCACCTAGTGCAG”, the binding signal was 13900 fluorescence intensity (a.u.).

Regarding “GTTAATTGCCACATCTAAATATGGCAAACGGTTAAATATCCGGAGTCACCTAGTGCAG”, the binding signal was 28500 fluorescence intensity (a.u.).

As for “GCAAAACACCAGTATCAATCATTTGGCAATAAGACGTACTCGGAGTCACCTAGTGCAG”, the binding signal is 4580 fluorescence intensity (a.u.).

In the case of “TATTGAGCCTAATTAATCCATGATTAGCCTATATGATGCTCGGAGTCACCTAGTGCAG”, the binding signal is 18500 fluorescence intensity (a.u.).

As for “CAGGATTGGAAACTTTCAACTTGAGATTTGAAAACTTTCACGGAGTCACCTAGTGCAG”, the binding signal was 5250 fluorescence intensity (a.u.).

Take “AATTAATCAATCACAGGTTATTAGTACTCCAGCATAGGTACGGAGTCACCTAGTGCAG”: the binding signal is 38600 fluorescence intensity (a.u.).

On to “AAACCCACTAATTATTGTCCTTCATTTGGCCCTTCATATACGGAGTCACCTAGTGCAG”, for which the binding signal was 5900 fluorescence intensity (a.u.).

Regarding “ATTGAGGTCTAATCTGATTTAGATTATTGAGCGGATCACCCGGAGTCACCTAGTGCAG”, the binding signal was 7650 fluorescence intensity (a.u.).

With “TCTAACAATTGAACAATTTAATTCCGCCATTCTTGGATTCCGGAGTCACCTAGTGCAG”, the binding signal is 11000 fluorescence intensity (a.u.).

Take “TTCAAACACATGATTGCCCTCGTCAAACAAGACACATGTGCGGAGTCACCTAGTGCAG”: the binding signal was 29000 fluorescence intensity (a.u.).

Turning to “TTATCAGCCTATAAATTTATTATTATTTATGTCCTCCACACGGAGTCACCTAGTGCAG”, the binding signal is 3150 fluorescence intensity (a.u.).
